Among the data in PubChem BioAssay AID1346428 (National Center for Advancing Translational Sciences (NCATS), 2018) are activation values, retold here.

Out of some 48,000 compounds screened, about 1,200 (2.5%) were called active. About 2% were inconclusive and are not listed.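 The calls were made as follows: active = activation of at least 60% and not above a set upper limit (about 1 call in 100 departs from these limits); inconclusive = activation of 40% to 60%, or above that upper limit; inactive = activation under 40%.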 The list shows a part of the results.

The target of the test is Probable G-protein coupled receptor 32 (Homo sapiens) (UniProt O75388). The experiment in a line: qHTS for Agonists of Human Resolvin D1 Receptor DRV1. The settings on record: CHO-K1 GPR32 beta-arrestin PathHunter luminescence, 90 min; at 76.9 µM; stronger effect = higher value; zero percent set by DMSO-only wells. In a few lines: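 Using DMSO wells as EC0, agonist-induced signal was taken as chemiluminescence from beta-Gal reconstituted upon beta-arrestin recruitment to GPR32 in CHO-K1 cells after 90 min compound treatment.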
Sequence of UniProt O75388 (O75388 whole entry, looked up): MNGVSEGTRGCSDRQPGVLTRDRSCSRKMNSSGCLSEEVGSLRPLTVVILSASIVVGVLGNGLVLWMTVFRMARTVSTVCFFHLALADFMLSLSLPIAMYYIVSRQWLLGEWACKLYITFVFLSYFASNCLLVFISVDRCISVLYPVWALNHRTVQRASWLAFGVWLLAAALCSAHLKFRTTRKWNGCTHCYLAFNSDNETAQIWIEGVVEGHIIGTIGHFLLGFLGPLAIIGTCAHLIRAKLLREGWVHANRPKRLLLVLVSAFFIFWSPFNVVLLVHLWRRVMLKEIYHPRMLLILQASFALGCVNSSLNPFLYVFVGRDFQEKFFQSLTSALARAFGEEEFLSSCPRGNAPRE
(In general: qHTS replaces the single test concentration by a dilution series.)
`COc1ccc(-n2nc3c(N4CCCC(C(=O)NCc5ccc(C)cc5)C4)nnc(C)c3c2C)cc1` (stereo not drawn): the activation is active: 111%.

For the molecule `COc1ccc(C(=O)NC2CC(=O)N(c3ccc4c(c3)OCCO4)C2)cc1` (stereo not drawn), the activation is inactive: 16%.

As for `COc1ccc(CNC(=O)CCc2cn(C)c3ccccc23)cc1`, the activation was inactive: -20.9%.

Take `Cc1c(-c2nnc(SCC(=O)Nc3ccccc3F)o2)nnn1-c1ccc(F)cc1`: the activation is inactive: -13.8%.

`COc1cccc(N2CCN(S(=O)(=O)c3cn(C)c(C)n3)CC2)c1`: the activation is inactive: 25.3%.

In the case of `Cc1ccc(CCNC(c2ccc(F)cc2)c2nnc(-c3ccccc3Cl)o2)cc1` (stereo not drawn), the activation is inactive: -13.2%.

Consider `CCn1c(C(=O)N2CCC(C(=O)N3CCN(c4cc(C)ccc4C)CC3)CC2)cc2sccc21`, for which the activation is inactive: -16.7%.

For `CCOc1ccc(CNC(=O)c2cccc(NC(=O)N3CCSc4ncccc43)c2)cc1`, the activation was inactive: -1.73%.

As to `CC(=O)N1CCc2cc(S(=O)(=O)NC(CC(C)C)C(=O)Nc3ccc(C(C)C)cc3)ccc21` (stereo not drawn), the activation was inactive: -7.93%.

With `CC(C)Cn1cc(NC(=O)Nc2cccc(C(F)(F)F)c2)c2ccccc2c1=O`, the activation was inactive: -15.4%.

`CCOC(=O)N1CCc2c(sc3c2c(=O)n(Cc2ccccc2)c(=O)n3Cc2cc(C)ccc2C)C1`: the activation was inactive: -4.18%.

As for `Cc1cc(-c2ccc(C)c(S(=O)(=O)N3CCC(C)CC3)c2)on1`, the activation is inactive: -8.22%.

As for `CCOC(=O)c1c(C)sc(-c2c(-c3ccc4c(c3)OCCO4)[nH]c3c2c(=O)n(C)c(=O)n3C)c1O`, the activation was inactive: -18.5%.

In the case of `CC(=O)N1c2ccc(S(=O)(=O)N3CCCCCC3)cc2CC1C(=O)NC(C)C` (stereo not drawn), the activation was inactive: 8.48%.

With `CC(C)CC(=O)Nc1nc2c(s1)CC(C(C)(C)C)CC2` (stereo not drawn), the activation was inactive: -9.24%.

As to `COC(=O)c1ccc(NC(=O)CN2C(=O)CCc3cc(S(=O)(=O)N4CCCCC4)ccc32)cc1`, the activation was inactive: 6.73%.

As to `O=C(O)CCn1c(=O)c2cccn2c2cccnc21`, the activation is inactive: -8.26%.

On to `Cc1[nH]c(=O)[nH]c(=O)c1S(=O)(=O)N1CCN(c2ccccc2Cl)CC1`, for which the activation was inactive: 0.0159%.

Take `COc1ccc(S(=O)(=O)NCC(c2ccco2)N2CCN(c3ccccc3)CC2)cc1OC` (stereo not drawn): the activation is inactive: -28.8%.

With `CCOC(=O)c1cc(-c2ccccc2)n(CCCC(=O)Nc2cccc(C)c2C)c1C`, the activation was inactive: -25.3%.

With `N#Cc1ccccc1Cn1c(=O)n(-c2cccc(C(F)(F)F)c2)c(=O)c2sccc21`, the activation is inactive: -14.3%.

In the case of `COc1ccccc1NC(=O)c1sc2nc(C)c(C(=O)Nc3ccc(C)cc3C)c(-c3cccs3)c2c1N`, the activation was inactive: -17.2%.

Regarding `CCc1ccc(NC(=O)CC2C(=O)N(c3ccc(Cl)cc3)C(=O)N2Cc2ccco2)cc1` (stereo not drawn), the activation is inactive: -21%.

On to `CCc1ccccc1Nc1nn2c(=O)c3ccc(C(=O)NC(C)c4ccccc4)cc3nc2s1` (stereo not drawn), for which the activation is inactive: -22.2%.

Take `Cc1ccc(NC(=O)C(=O)NCC(c2cccnc2)N2CCN(c3ccccc3F)CC2)cc1Cl` (stereo not drawn): the activation was inactive: -13.2%.

`COc1cc2[nH]c(=O)n(CCCC(=O)NCc3ccc(Cl)cc3)c(=O)c2cc1OC`: the activation is inactive: 2.01%.

With `Cc1cccc2sc(N(Cc3cccnc3)C(=O)c3cccs3)nc12`, the activation is inactive: -16.3%.

Turning to `CCc1ccc(CN2CCc3nc(Nc4ccccc4)ncc3C2)cc1`, the activation is inactive: -30.2%.

In the case of `CCOc1cc2[nH]c(=O)n(CCCCC(=O)N3CCN(c4cccc(Cl)c4)CC3)c(=O)c2cc1OCC`, the activation is inactive: -5.31%.

In the case of `CC(=O)Nc1ccc(NC(=O)c2cc3sccc3n2Cc2ccc(F)cc2)cc1`, the activation was inactive: -9.23%.

`CC(C)(C)C1CCc2c(sc3nc(-c4cc5cc(Br)ccc5oc4=O)[nH]c(=O)c23)C1` (stereo not drawn): the activation was inactive: 1.9%.

In the case of `CCOC(=O)c1c(C)[nH]c(CCC(=O)NCc2ccc(F)cc2)c1C`, the activation was inactive: -8.08%.

`CCOC(=O)C1CCN(C(c2cccc(F)c2)c2c(O)cc(C)n(Cc3ccco3)c2=O)CC1` (stereo not drawn): the activation was inactive: -10.7%.

Turning to `COCCCNC(=O)c1cnc2c(-c3ccc(F)cc3)c(C)nn2c1C`, the activation was inactive: -14.9%.

With `O=C(c1ccc(Br)cc1)N1CCN(CCc2ccncc2)CC1`, the activation was inactive: -12%.

Take `Cn1nc(-c2ccccc2F)c2cc(C(=O)NCCc3ccc(Cl)cc3)sc21`: the activation is inactive: -24.1%.

Turning to `CCN1CC(CCN2CCOCC2)C(c2ccccc2)(c2ccccc2)C1=O` (stereo not drawn), the activation was inactive: -36.6%.

With `COc1ccc(-c2noc(N(c3cccc(Cl)c3)c3nc(-c4ccc(OC)c(OC)c4)no3)n2)cc1OC`, the activation is inactive: -1.06%.

`CN(C)c1ccc(CNC(=O)c2cnc3sc(N4CCOCC4)nn3c2=O)cc1`: the activation was inactive: -0.545%.

Take `CCOc1ccc(-c2nc(SCC(=O)c3ccccc3)n[nH]2)cc1`: the activation is inactive: 35.7%.

On to `CC(=O)c1ccc(NC(=O)CSc2ccc(-c3cccs3)nn2)cc1`, for which the activation is inactive: 7.03%.

On to `Cc1ccc(S(=O)(=O)Cc2ccc(C(=O)NCCc3ccc(Cl)cc3)o2)cc1`, for which the activation is inactive: 38.9%.

In the case of `Brc1cccc(-c2nnc(CN3CCN(c4ccccn4)CC3)o2)c1`, the activation was inactive: -5.59%.

On to `Cc1cccc(-n2cc(-c3ccccc3)c3c(NC4CCCC4)ncnc32)c1`, for which the activation was inactive: -39%.

On to `C=Cc1ccc(Cn2nc(-c3ccc(C)cc3)ccc2=O)cc1`, for which the activation was inactive: -16.7%.

Regarding `CCOC(=O)c1cc(C)n(CC2CCC(C(=O)Nc3cccc(C)c3)CC2)c1C` (stereo not drawn), the activation was inactive: -16.1%.

On to `CCOC(=O)c1c(NC(=O)c2ccc(S(=O)(=O)N3CCC(C)CC3)cc2)sc2c1CCN(CC)C2`, for which the activation is inactive: -4.67%.

As to `COC(=O)C1=C(C)NC(=O)C1(NC(=O)c1cc(OC)c(OC)c(OC)c1)C(F)(F)F` (stereo not drawn), the activation was inactive: 15.4%.

Turning to `Cc1cc(C)nc(NC(=NCCc2c[nH]c3ccc(Cl)cc23)NC(=O)c2ccccc2C)n1`, the activation was inactive: 35.9%.

With `COc1ccc(OC)c(NC(=O)C2CCN(S(=O)(=O)c3ccc4c(c3)CCCC(=O)N4)CC2)c1`, the activation is active: 72.5%.

`CCOC(=O)c1ccc(NC(=O)CCC(=O)N2Cc3ccccc3Oc3ncccc32)cc1`: the activation is inactive: -6.52%.

As to `CCOC(=O)c1c(S(=O)(=O)N2CCCC(C(=O)Nc3cc(C)ccn3)C2)c(C)n(C)c1C` (stereo not drawn), the activation is inactive: 0.173%.

As to `O=C(c1cc(O)c(O)c(O)c1)c1ccc(O)c(O)c1O`, the activation is inactive: -27.9%.

As for `O=C(NC1CCCCC1)c1ccc(CSc2nc3cccnc3n2Cc2ccc(F)cc2)cc1`, the activation was inactive: 20.8%.

`O=C1c2[nH]nc(-c3ccccc3O)c2C(c2ccccc2F)N1Cc1cccnc1` (stereo not drawn): the activation was inactive: -8.99%.

Regarding `Cc1cccc(-n2c(Cc3ccccc3)nnc2SCc2nc(-c3cccs3)no2)c1`, the activation is inactive: 8.73%.

Turning to `O=C(CN1C(=O)COc2ccc(S(=O)(=O)N3CCCC3)cc21)N1CCN(c2ccc(F)cc2)CC1`, the activation was inactive: -0.452%.

As for `O=C1CC(c2nnc(Cc3ccc(F)cc3Cl)o2)CN1c1ccccc1` (stereo not drawn), the activation is inactive: -0.424%.

`CCOC(=O)c1ccc(N2C(=O)c3n[nH]c(-c4ccco4)c3C2c2ccc(O)c(OCC)c2)cc1` (stereo not drawn): the activation is inactive: -5.62%.

With `Cc1cccc(Nc2nnc(-c3ccc(C)c(S(=O)(=O)NCC4CCCO4)c3)c3ccccc23)c1` (stereo not drawn), the activation was inactive: -10.3%.

With `COCCNc1ccc(-c2nc(-c3ccco3)no2)cc1[N+](=O)[O-]`, the activation was inactive: -10.1%.

For the molecule `O=P(O)(O)C(Cl)(Cl)P(=O)(O)O`, the activation was inactive: 10.1%.

On to `O=C(Nc1ccccc1C(F)(F)F)n1ncc2cc(Cl)ccc21`, for which the activation was inactive: 10.2%.

For `COc1ccc2cc3c(N)nn(C(=O)c4ccc(OC)c(OC)c4)c3nc2c1`, the activation is inactive: -2.52%.

`Cc1ccc(-c2cc(C(=O)NCc3ccccc3Cl)c3ccccc3n2)cc1C`: the activation was inactive: -5.88%.

With `Cc1ccc2c(c1)N(CCCC(=O)Nc1cccc(C(F)(F)F)c1)C(=O)CO2`, the activation is inactive: -20.2%.

For `COc1cccc(CNC(=O)C2CCN(S(=O)(=O)c3ccc4c(c3)CCCN4C(C)=O)CC2)c1`, the activation is inactive: -9.38%.

In the case of `CCOc1ccc(-c2nc3c(c(SCC(=O)N4CCCCC4)n2)Cc2cccc(OC)c2O3)cc1`, the activation is inactive: -12.7%.

Take `CCCCOc1cc(C(=O)NCCN(CC)CC)c2ccccc2n1`: the activation is inactive: -12.9%.

As for `CCCCN1C(=O)C(O)(CC(=O)c2ccc(C(C)(C)C)cc2)c2ccccc21` (stereo not drawn), the activation was inactive: -4.68%.

With `CCCn1c2ccccc2c2cnn(CC(=O)N3CCN(c4ccccc4)CC3)c(=O)c21`, the activation was inactive: -32.7%.

Consider `CCOc1ccc(NC(=O)c2ncoc2-c2ccco2)cc1`, for which the activation is inactive: 45.3%.

Turning to `COc1cc(NC(=O)Cn2cc(C(=O)c3ccc(F)cc3)c(=O)c3ccc(C)nc32)cc(OC)c1`, the activation was inactive: 19.1%.

For `Cc1ccc2nc3c(cc(C#N)c(=O)n3-c3nnc(SCc4ccccc4)s3)c(=O)n2c1`, the activation is inactive: 15%.

Consider `Cc1cccc(CSc2ncc(Cl)c(C(=O)Nc3nc4ccc(F)cc4s3)n2)c1`, for which the activation was inactive: -5.97%.

Turning to `CC(C)NC(=O)c1ccc(NC(=O)N2CCCCc3ccccc32)cc1`, the activation was inactive: 6.42%.

On to `CCOc1cc(C#N)c(NC(=O)Cn2nnc(-c3ccc(C)cc3)n2)cc1OCC`, for which the activation was inactive: 10%.

`COc1cccc(CNC(=O)c2ccc(-n3c(C)cc4c3CCC(C)C4)cc2)c1` (stereo not drawn): the activation is inactive: -11%.

For the molecule `O=C(Cn1c(=O)nc(-c2ccccc2)c2cc(Cl)ccc21)Nc1ccc(F)c(Cl)c1`, the activation is inactive: -2.21%.

Consider `CCOc1ccc(-c2nnc(SCC(=O)Nc3cccc(OC)c3)nc2-c2ccc(OCC)cc2)cc1`, for which the activation is inactive: -14.3%.

As to `O=C(NCC(c1ccc(Cl)cc1)N1CCOCC1)c1ccccc1F` (stereo not drawn), the activation was inactive: -5.73%.

Consider `CCS(=O)(=O)CCn1c([N+](=O)[O-])cnc1C`, for which the activation is inactive: 9.68%.

`COc1cccc(C2CC(=O)Nc3c2c(=O)[nH]c2nc4ccccc4n32)c1` (stereo not drawn): the activation was inactive: 15.1%.
